{"source": "PubChem BioAssay AID485294", "about": "(National Center for Advancing Translational Sciences (NCATS), 2010)", "note": "The campaign covered roughly 370,000 compounds. About 150 (0.041%) were called active. The shares of active, inactive and inconclusive entries below differ from those in the screen. The call rests on the fitted dose curve; in most records, active means well fitted inhibition curve with a large enough effect; inconclusive means small, poorly fitted or top-dose-only effect; inactive means flat fitted curve, though single readings scatter. Potencies of inconclusive entries are left out as doubtful fits. Potency means the concentration at half of the fitted maximal effect; tags describe the fitted curve by direction and shape."}
{"target": "Beta-lactamase (Escherichia coli (strain K12)) (UniProt P00811)", "sequence (P00811 whole entry, looked up)": "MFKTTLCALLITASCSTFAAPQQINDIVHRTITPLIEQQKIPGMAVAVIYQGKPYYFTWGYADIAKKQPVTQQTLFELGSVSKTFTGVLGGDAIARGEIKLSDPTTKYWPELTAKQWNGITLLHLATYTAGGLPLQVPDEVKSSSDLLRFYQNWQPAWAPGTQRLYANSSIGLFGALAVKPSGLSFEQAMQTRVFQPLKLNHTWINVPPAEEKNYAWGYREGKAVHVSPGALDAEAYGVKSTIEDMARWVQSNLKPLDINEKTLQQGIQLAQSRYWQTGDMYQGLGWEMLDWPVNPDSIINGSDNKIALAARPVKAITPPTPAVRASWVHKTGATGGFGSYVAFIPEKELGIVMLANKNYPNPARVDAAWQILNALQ", "assay": "qHTS Inhibitors of AmpC Beta-Lactamase (assay with detergent); further: nearly all actives have a fitted effect of over 25% in size", "conditions": "AmpC hydrolysis of nitrocefin, absorbance 480 nm, 0.01% Triton; series mostly up to 114 µM", "summary_of_the_method": "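20 mM phosphate pH 7.0 + 0.01% (detergent screen) or 0.0001% Triton X-100; 5.3 nM AmpC reagent; cpd preinc 15 min RT; nitrocefin (800 uM stock) to start; A480 q20 s × 4 min; Activity was normalised to no-enzyme and no-compound control wells.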"}
{"smiles": "CCOc1ccc(NC(=O)CSc2ccc3nnc(-c4cccnc4)n3n2)cc1", "Potency": "inconclusive [inhibitor, partial curve, poor fit]"}
{"smiles": "Cc1ccc(C(=O)/C=C/Nc2ccccc2C(N)=O)cc1", "Potency": "inactive"}
{"smiles": "COc1ccc(S(=O)(=O)N2CCOCC2)cc1NC(=O)CN1CCCC1", "Potency": "inactive"}
{"smiles": "CC(C)(C)NC(=O)NC(=O)CN1CCCCC1", "Potency": "inconclusive [inhibitor, partial curve]"}
{"smiles": "CCOC(=O)C1(Cc2ccccc2)CCCN(C(=O)c2cn[nH]c2)C1", "note": "(centres undefined)", "Potency": "inactive"}
{"smiles": "CCOc1ccc(-n2nnnc2-c2nc3ccccc3s2)cc1", "Potency": "inactive"}
{"smiles": "O=C(CSc1nnc(NC(=O)c2c(F)cccc2F)s1)NCc1ccco1", "Potency": "inconclusive [inhibitor, full curve, poor fit]"}
{"smiles": "Cc1ccc(C)c(/C=C(\\C(=O)O)c2ccc(S(=O)(=O)N3CCCCC3)s2)c1", "Potency": "inconclusive [inhibitor, full curve, poor fit]"}
{"smiles": "Cc1ccc(O)c(NC(=O)c2noc3c2CCCCC3)c1", "Potency": "inactive"}
{"smiles": "O=C(Nc1ccc2c(c1)OCO2)c1cc(Cl)ccn1", "Potency": "inconclusive [inhibitor, partial curve, poor fit]"}
{"smiles": "O=C(C[n+]1cc(-c2ccccc2)n2c1CCC2)N1c2ccccc2Sc2ccccc21", "Potency": "inactive"}
{"smiles": "COc1cc(/C=C/C(=O)O)cc(S(=O)(=O)Nc2ccccc2SC)c1OC", "Potency": "inconclusive [inhibitor, full curve, poor fit]"}
{"smiles": "CCN1CCN(C(=O)COc2ccc(S(=O)(=O)N3CCOCC3)cc2C)CC1", "Potency": "inconclusive [inhibitor, full curve, poor fit]"}
{"smiles": "O=C(O)CSc1nc2c(cnn2-c2ccccc2)c(=O)n1-c1ccc(Br)cc1", "Potency": "inconclusive [inhibitor, full curve, poor fit]"}
{"smiles": "O=C(/C=C/c1ccco1)NC(=S)Nc1cccc(-c2nc3ccccc3o2)c1", "Potency": "inactive"}
{"smiles": "O=C(NCc1ccc(F)cc1)c1cccc(S(=O)(=O)N2CCCC2)c1", "Potency": "inconclusive [inhibitor, full curve, poor fit]"}
{"smiles": "COc1ccc(N=Cc2nc(-c3ccccc3)oc2OC(=O)c2ccccc2)cc1", "Potency": "inconclusive [inhibitor, partial curve, poor fit]"}
{"smiles": "COc1ccc(C(=O)NC2CCN(C(=S)Nc3ccc(C)c(C)c3)CC2)cc1", "Potency": "inconclusive [inhibitor, full curve, poor fit]"}
{"smiles": "CCCCC(=O)N=c1sc2cc([N+](=O)[O-])ccc2n1C", "Potency": "inconclusive [inhibitor, partial curve]"}
